Source: PubChem BioAssay AID1508624 (National Center for Advancing Translational Sciences (NCATS), 2021)
Hit rate of the full screen: of about 48,000 compounds, about 120 (0.25%) were called active. About 4% were inconclusive and are not listed. The call rests on the fitted dose curve; in most records, active means well fitted activation curve with a large enough effect; inconclusive means small, poorly fitted or top-dose-only effect, or another doubt; inactive means no such curve, though single readings can be large or run the other way. Some of the results follow.

Experiment: Primary qHTS for Identification of Small Molecule Activators of Huntingtin-Antisense Promoter Activity; further: nearly all actives have a fitted effect of over 55% in size
Conditions: HEK293 HTT-AS promoter firefly luciferase reporter, 24 h; series mostly up to 57.5 µM; activity change, positive = activation: at the top concentration
Summary of the method: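 HEK293 cells carrying firefly luciferase reporters were seeded at 2,500 per well in Opti-MEM and cultured for 24 h. They were then treated with compounds at up to 57.5 uM final for 24 h at 37 degrees C before Dual-Glo luminescence readout.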

Activity change, positive = activation, inactive:
Cc1cc(-c2nc3ncccc3o2)ccc1NC(=O)COc1ccccc1C 30.6%, CCOC(=O)c1ccccc1NC(=O)CSc1ccc(-c2cccs2)nn1 -23.4%, O=c1c2oc3ccccc3c2n(Cc2cccc(Cl)c2)c(=O)n1Cc1ccco1 -41.6%, Cc1ccc2occ(CC(=O)N(Cc3ccc(Cl)cc3)C3CCS(=O)(=O)C3)c2c1 (stereo not drawn) -24.1%, COc1ccc(-c2cc(C(F)(F)F)nc(SCCC(=O)Nc3ccccc3F)n2)cc1 -5.69%, O=C(Cc1ccccc1)NC1CC(=O)N(c2ccccc2)C1 (stereo not drawn) -13.6%, Cn1cc(S(=O)(=O)c2cccc(Cl)c2)c(=O)c2cc(F)c(N3CCN(c4ccc(F)cc4)CC3)cc21 3.6%, Cc1ccc(-c2noc(CNS(=O)(=O)c3ccc(F)cc3)n2)cc1 -21.4%, CCc1ccc(Nc2nn(-c3ccc(OC(F)(F)F)cc3)nc2C(C)=O)cc1 0.637%, COc1ccccc1N1CCN(C(=O)CN2C(=O)COc3ccc(S(=O)(=O)N4CCCCCC4)cc32)CC1 -14%, Cc1cccc(OCC(=O)Nc2nc3c(s2)CC(C(C)(C)C)CC3)c1C (stereo not drawn) -8.21%, CCN(CC)c1ccc(NC(=O)c2cnc3c(-c4ccccc4)c(C)nn3c2C)c(C)c1 -23.9%, Cc1c(NC(=O)c2cc(-c3ccc(F)cc3)on2)c(=O)n(-c2ccccc2)n1C -3.82%, Cc1nnc(N2CCN(C(=O)NC(C)C)CC2)c2nn(-c3ccccc3)c(C)c12 6.02%, COc1ccc(CNC(=O)CN2C(=O)COc3ccc(S(=O)(=O)Nc4ccccc4)cc32)cc1 -20.6%, CCOC(=O)c1cc2c(=O)n3ccccc3nc2n(C(C)C)c1=NC(=O)c1cc2ccccc2o1 5.95%, O=C(Nc1ccc(F)c(F)c1)c1cc(S(=O)(=O)NC2CCCCCC2)ccc1F -38.2%, CCc1ccc(C(=O)c2cn(CC(=O)NC3CCCCC3)c3nc(C)ccc3c2=O)cc1 -16.5%, O=C(c1ccccc1)n1nc(-c2ccccc2)nc1NCc1ccc(F)cc1 18.3%, COc1ccc(-n2nc(C(=O)N3CCCC(C)C3)c3c4ccccc4n(C)c3c2=O)cc1 (stereo not drawn) -13.9%, COc1ccc(-c2cc(C(F)(F)F)nc(S(C)(=O)=O)n2)cc1 -93.9%, CCOC(=O)c1sc2ccccc2c1S(=O)(=O)Nc1ccc(CC)cc1 -35.6%, CNC(=O)c1c(NC(=O)c2ccc(S(=O)(=O)N3CCCCC3)cc2)sc2c1CCC2 -17.6%, CCOc1ccc(N2CC(NC(=O)/C=C\c3ccc4c(c3)OCO4)CC2=O)cc1 (stereo not drawn) -13%, COc1ccc(-n2ccnc(NCc3ccccc3OC)c2=O)cc1 -7.37%, O=S(=O)(Nc1cc(F)ccc1F)c1ccc2[nH]c3c(c2c1)CCCC3 -25.9%, NS(=O)(=O)c1ccc(CCNc2nccn(-c3cccc(C(F)(F)F)c3)c2=O)cc1 -26.5%, CSc1nc2c(c(=O)[nH]1)C(c1cccc(F)c1F)CC(=O)N2 (stereo not drawn) -10.4%, CC(C)(C)C(=O)Nc1ccc2nc(SCC(=O)N3CCOCC3)sc2c1 -7.61%, COc1cccc(CNC(=O)c2ccc3c(c2)c(C)c(C)n3Cc2ccccc2)c1OC -18.7%, CC(C)c1ccc(NC(=O)CS(=O)(=O)c2cccc3nsnc23)cc1 -3.96%, CCCCN(CCCC)CCNC(=O)Cn1nc(C)n2c(cc3sccc32)c1=O -14.9%, COc1ccc(NS(=O)(=O)c2cc(Br)cc3c2N(C(=O)C2CC2)CC3)cc1OC -43.9%, CCCCNC(=O)c1nn(-c2ccc(CC)cc2)nc1CO 2.69%, Cc1cccc(NC(=O)C2CCN(S(=O)(=O)c3ccc(F)cc3)CC2)c1C -12.9%, CC1CCC(NC(=O)c2ccc3c(c2)N(Cc2cccc(Cl)c2)C(=O)c2ccccc2S3(=O)=O)CC1 (stereo not drawn) 12.1%, CCc1ccccc1NC(=O)Cn1nnc(C(=O)NCc2ccccc2Cl)c1N -31%, CCN(CC)CC(C)CNC(=O)c1cc(-c2ccc(Br)s2)nc2ccccc12 (stereo not drawn) -18.9%, COc1cccc(CN(C(=O)c2oc3cc(C)ccc3c2C)C2CCS(=O)(=O)C2)c1 (stereo not drawn) -13.1%, CCOC(=O)c1ccc(NS(=O)(=O)c2ccc3c(c2)n(C)c(=O)n3C)cc1 -33.5%, CCOc1ccc(NC(=O)C2CC(=O)N(c3ccc(C(C)C)cc3)C2)cc1 (stereo not drawn) -2.49%, Cn1c(=O)n(-c2ccc3c(c2)OCO3)c2nc(-c3ccccc3)nc(C(N)=O)c21 -9.06%, Cc1cc(C)cc(NC(=O)CSc2cc(C)[nH]c(=O)n2)c1 -19.5%, COc1cccc2c1cc1c(=O)n(CC(=O)N3CCN(c4cccc(C)c4)C(C)C3)nc(C)n12 (stereo not drawn) -4.62%, CCCC1=Nc2cc(C(=O)NC3CCCC3)ccc2Sc2ccc(C)cc21 -32.1%, CCOC(=O)CC(NC(=O)Cn1nnc(-c2ccc(C(F)(F)F)cc2)n1)c1ccc(OC)cc1 (stereo not drawn) -24.6%, CC(=O)Nc1ccc(-c2cc(C(=O)O)c3c(-c4ccccc4)[nH]nc3n2)cc1 -7.2%, COc1ccc(C(=O)N2CCN(Cc3cc(=O)n4nc(-c5ccccc5C)sc4n3)CC2)cc1OC -18.6%, C[C@@H](O[C@H]1OCCN(Cc2n[nH]c(=O)[nH]2)[C@@H]1c1ccc(F)cc1)c1cc(C(F)(F)F)cc(C(F)(F)F)c1 -48.4%, Cc1c(C)c2c(cc(C)c3c(-c4ccccc4)coc32)oc1=O -12.3%, O=C(NC1CC(=O)N(c2cccc(F)c2)C1)C1CCCC1 (stereo not drawn) -9.05%, COc1cc(-c2nc(Cn3nnc(C(=O)Nc4ccccc4)c3C)c(C)o2)cc(OC)c1OC -29.4%, Cc1ccc(CNC(=O)c2cccn2-c2nnc(N3CCCCC3)s2)cc1 -3.68%, COc1ccccc1-n1ncc2c(=O)[nH]c(SCC(=O)Nc3ccc(Cl)cc3)nc21 -24%, O=C(Nc1cc2c(cc1C(=O)c1ccccc1)OCCO2)c1ccc(Br)cc1 -5.98%, CN(C)CCN(Cc1ccccc1)S(=O)(=O)c1ccc2[nH]c(=O)ccc2c1 -26.5%, O=C(c1cccn1-c1nnc(N2CCCC2)s1)N1CCN(c2ccccc2)CC1 -3.59%, CCOC(=O)COc1ccc2c(C)c(CCN(CC)CC)c(=O)oc2c1Cl -1.05%, Cc1ccccc1-c1nc(SCC(=O)NCc2ccco2)c2c(=O)n(C)c(=O)n(C)c2n1 6.41%, COc1ccc2oc(=O)c(-c3csc(-c4ccc(Br)cc4)n3)cc2c1 0.734%, COc1cccc(-n2cc(C(=O)NCCc3ccc(C)cc3)c3ccccc3c2=O)c1 -27.4%, CCN(CC)CCCNC(=O)CN1C(=O)CCn2nc(-c3cn(C)c4ccccc34)cc21 -4.38%, COc1ccc(-c2nc3c4ccccc4n(CC(=O)N4CCN(c5ccccc5OC)CC4)c(=O)n3n2)cc1 -0.735%, COc1ccc(CCNC(=O)c2ccc3c(c2)c(C)c(C)n3Cc2ccc(F)cc2)c(OC)c1OC -33.3%, Cc1ccc2nc(-c3ccccc3F)c(Nc3ccc(Cl)cc3)n2c1 -28.6%, COc1cccc(-n2c(=O)c3c4c(sc3n(Cc3ccc(C)cc3)c2=O)CCCC4)c1 -8.62%, O=S(=O)(NCc1ccc(F)cc1)c1ccc(-c2cnc(C3CC3)o2)cc1 -22.9%, Cc1nnc(NC(=O)CSCc2cc(=O)c3cc(Cl)ccc3[nH]2)s1 -5.44%, Cc1ccc(C(=O)c2cn(CC(=O)NC3CCCCC3)c3nc(C)ccc3c2=O)cc1 -7.32%, Cc1c(C(=O)N2CCCC2)oc2c1-c1nn(CC(=O)NCCCOC(C)C)cc1CC2 -23.9%, COc1cccc(C(=O)Nc2ccccc2C(=O)OCc2cc(=O)n3nc(C4CC4)sc3n2)c1 2.97%, COc1cccc(C(=O)Nc2ccc3nc(SCC(=O)N4CCOCC4)sc3c2)c1 -4.02%, CCCCS(=O)(=O)c1oc(-c2cccs2)nc1S(=O)(=O)c1ccccc1 -95.2%, COc1cc2nc(NCCC(C)C)n3nc(-c4ccccc4)nc3c2cc1OC -16.8%, Cc1cc(C)n2c(Nc3ccc(Cl)cc3)c(-c3ccsc3)nc2n1 -32.1%, Cc1ccc2c(CN3CCN(C(=O)c4ccc(F)cc4)CC3)cc(=O)oc2c1 -14.6%, Cc1ccc(OCC(=O)N(c2ccc(C)cc2)S(=O)(=O)c2ccc(Cl)cc2)cc1 16.2% [at 11.5 µM, percent change from vehicle, -100% = no light], CCOc1ccccc1NC(=O)CSc1nc(=O)[nH]c2c1CCCC2 -20.8%, CCc1c2c(nc3ccc(OC(=O)N4CCC(N5CCCCC5)CC4)cc13)-c1cc3c(c(=O)n1C2)COC(=O)[C@]3(O)CC, O=C(CS(=O)(=O)c1cccc2nsnc12)Nc1ccccc1 -4.9%, COc1ccccc1CNC(=O)CN1C(=O)COc2ccc(S(=O)(=O)Nc3ccccc3)cc21 -25.1%, CC(C)(C)c1ccc(C(=O)NCCc2csc3nc(-c4ccccc4F)nn23)cc1 -6.96%, CSCCC(NS(=O)(=O)c1ccc2c(c1)oc(=O)n2C)C(=O)N1CCN(c2cc(C)ccc2C)CC1 (stereo not drawn) -29.9%, COc1ccc(C2CC(=O)NC(NC(=O)c3ccc(Br)cc3)=N2)c(OC)c1OC (stereo not drawn) 2.95%, COc1ccc(C2(Nc3cccc(C(=O)O)c3C)C(=O)c3ccccc3C2=O)cc1 5.44% [at 11.5 µM, percent change from vehicle, -100% = no light], O=C(/C=C\c1ccc2c(c1)OCO2)NC1CC(=O)N(c2ccc(Cl)cc2)C1 (stereo not drawn) -19.9%, COc1ccc(-c2csc3nc(-c4ccccc4C)oc(=O)c23)cc1OC -19.2%, Cc1ccc(NC(=O)C2CCN(S(=O)(=O)c3c(C)noc3C)CC2)c(C)c1 -7.91%, CC(=O)N1CCOc2cc(S(=O)(=O)NCc3ccc(C)cc3)c(Cl)cc21 -16.6%, CCOc1ccccc1NC(=O)c1cc(=O)c2ccc(C)cc2o1 -5.99%, COc1ccc(NC(=O)CSc2oc(-c3cccs3)nc2S(=O)(=O)c2ccc(C)cc2)c(OC)c1 1.97%, CCSc1nc(-c2ccccc2OC)nc2c1Cc1c(CO)cnc(C)c1O2 -29.7%, CCOC(=O)c1c(C)oc2ncnc(N3CCN(c4ccccc4F)CC3)c12 -31.7%
